# “And” between values parts separate entries of the source, which are not always exact repeats. Equal values may be shown once. The list shows a part of the results. Shown are side measurements of this screen, not its main read-out; they come without a call.
# Experiments:
# Test in all cases: Primary Screen for Target Class Profiling of Small Molecule Inhibitors of Methyltransferases
# [1] = target: Glycine N-methyltransferase (Homo sapiens) (UniProt Q14749); details: purified enzyme, MTase-Glo SAH luminescence; measured here: GNMT inhibition; at 40 µM; stronger effect = lower value
# Outline: (§1)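 Each enzyme was reacted with SAM and its substrate, with compounds tested once at 40 uM; SAH formed was read by MTase-Glo luminescence.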
# [2] = target: Guanidinoacetate N-methyltransferase (Homo sapiens) (UniProt Q14353); details: purified enzyme, MTase-Glo SAH luminescence; measured here: GAMT inhibition; at 40 µM; stronger effect = lower value
# Outline: as §1
# [3] = target: Histamine N-methyltransferase (Homo sapiens) (UniProt P50135); details: purified enzyme, MTase-Glo SAH luminescence; measured here: HNMT inhibition; at 40 µM; stronger effect = lower value
# Outline: as §1
# [4] = target: Nicotinamide N-methyltransferase (Homo sapiens) (UniProt P40261); details: purified enzyme, MTase-Glo SAH luminescence; measured here: NNMT inhibition; at 40 µM; stronger effect = lower value
# Outline: as §1
# [5] = target: Phenylethanolamine N-methyltransferase (Homo sapiens) (UniProt P11086); details: purified enzyme, MTase-Glo SAH luminescence; measured here: PNMT inhibition; at 40 µM; stronger effect = lower value
# Outline: as §1
# % is set by controls: 0 for no effect and ±100 for the full control effect.
SMILES,"activity change, negative = inhibition [1] [%]","activity change, negative = inhibition [2]","activity change, negative = inhibition [3] [%]","activity change, negative = inhibition [4]","activity change, negative = inhibition [5]"
CCNC(=O)c1cc2n(n1)CC(C)(C(=O)NCc1ccc(F)cc1)N(C)C2=O (stereo not drawn),1.18,-0.446%,-4.96,0.975%,-3.13%
COC(=O)c1ccc(CN2C[C@@H]3C(C)(C)COc4ccc(OC)cc4[C@]3(CO)C2)cc1,-5.25,-0.079%,-2.75,-8.22%,-1.93%
Cc1ccc(N2C(=O)c3cc(C(C)(C)C)nn3CC2(C)C(=O)NCc2ccccc2)cc1C (stereo not drawn),3.94,0%,2.43,1.84%,0.896%
COc1ccc(Cl)cc1NC(=O)Cn1nc2cc(C)nc(Nc3ccccc3)n2c1=O,1.13,7.9%,-2.86,-5.2%,-2.18%
CC(C)C1c2cccn2CCN1C(=O)NCCc1ccccc1 (stereo not drawn),13.1,3.73%,-6.66,5.9%,8.89%
CC(C)C[C@H](NC(=O)C1OC1C(=O)O)C(=O)NCCCCN=C(N)N (stereo partly drawn),-9.15,1.05%,-2.9,-4.35%,5.57%
O=[S+]1([O-])N(c2ccccc2)C[C@@H](O)[C@]12CCN(Cc1ccc(C(F)(F)F)nc1)C2,-4.44,-1.76%,-0.871,-10.3%,-22.5%
CC(C)Oc1ccc(CN2C(=O)c3cc4occc4n3CC2(C)C(=O)NC2CCCCCC2)cc1 (stereo not drawn),-0.785,-29.4%,2.5,-4.18%,-4.48%
O=C(c1ccc2c(=O)nc3c(-c4cccc(F)c4)n[nH]n3c2c1)N1CCN(c2ccc(F)cc2)CC1,-22.4,0%,-0.391,-6.67%,-1.82%
O=C(c1ccc(C(F)(F)F)cc1)N1CCCC(C(=O)N2CCC(N3Cc4cccn4C3=O)CC2)C1 (stereo not drawn),-7.8,-12.8%,-6.24,-14.6%,-6.41%
COc1cccc(CN2C(=O)c3cc4ccc(OC)cc4n3CC2(C)C(=O)NC2CCCCCC2)c1 (stereo not drawn),0.993,0%,4.32,-14.5%,-2.74%
Cc1c(NC(=O)CCc2cc3n(n2)CCNC3)cccc1-c1nncn1C,-0.96,-0.085%,-1.26,-2.28%,-25%
O=C(NC[C@H]1O[C@@H](Cc2nc(-c3ccc(OC(F)(F)F)cc3)no2)[C@H](O)[C@@H]1O)C1CC1,0.21,-0.388%,1.24,-1.58%,-6.9%
COc1ccc(NC(=O)N[C@H]2C[C@@H](c3nc(-c4ccncc4)no3)N(C)C2)cc1,-6.68,-7.89%,-3.73,-13.3%,-26.2%
CCCn1c(=O)c2ccccc2n2c(=O)n(CC(=O)NCc3ccc(Cl)cc3)nc12,-6.64,2.3%,2.67,-13.6%,-2.64%
CC(C)OCCCNc1nc2c(-c3ccccc3)nnn2c2ccccc12,4.95,3.27%,5.33,7.58%,-2.26%
Cc1cc(C)cc(N2C(=O)c3cc4sccc4n3CC2(C)C(=O)NC2CCCCCC2)c1 (stereo not drawn),1.34,0%,0.497,5.82%,-2.99%
CNC(=O)N1CCn2cccc2C1C (stereo not drawn),-0.524,0.069%,0.379,-1.44%,3%
Cc1nc(N2CCC(C(=O)NCCC3=CCCCC3)CC2)cc(C(F)(F)F)n1,-4.58,-3.9%,-5.79,-9.84%,-6.21%
O=C(Cn1c(=O)oc2cc(S(=O)(=O)N3CCCC3)ccc21)NCCC1=CCCCC1,0.53,0%,1.02,-5.66%,-41.7%
Cc1ccccc1C(=O)c1ccc(Nc2ccc(Br)cc2N)cc1Cl,-6.64,-25.8%,-2.71,-35.3%,-16.3%
CC(=O)O[C@H]1C(=O)[C@@]2(C)C([C@H](OC(=O)c3ccccc3)[C@]3(O)C[C@H](OC(=O)[C@H](O)[C@@H](NC(=O)c4ccccc4)c4ccccc4)C(C)=C1C3(C)C)[C@]1(OC(C)=O)CO[C@@H]1C[C@@H]2O (stereo partly drawn),-2.62,12.9% and 13.6% and -6.26%,-0.379,-11.5% and -6.01% and -19.1%,-7.13% and -0.092% and -5.82%
COc1cc(CC2(CCC(=O)N3CCC(Oc4cccc(F)c4)CC3)CCC(=O)N2)ccc1F (stereo not drawn),-1.24,-1.07%,-0.457,-1.84%,2.58%
CC(=O)N1CCC(N2CCOC[C@H]2c2ncc(C(C)(C)C)[nH]2)CC1,-3.88,-3.26%,-0.866,-12.3%,-4.92%
CCN1CCN(c2ccc(Nc3ccc(-c4ccc(C(N)=O)cc4)n4ncnc34)cc2)CC1,,6.34%,,-71.8%,-17.5%
COc1ccc(OC)c2c1cc1n2CC(C)(C(=O)NC2CCCCCC2)N(CCC(C)C)C1=O (stereo not drawn),30.8,-2.7%,-0.292,-4.39%,-15.6%
COCCCN1C(=O)c2cc3ccccc3n2CC1(C)C(=O)NC1CCCC1 (stereo not drawn),3.43,0%,2.67,5.08%,0.42%
Cc1ccccc1CC(=O)Nc1cccc(-c2nnc3n2CCCC3)c1,-3.77,-0.338%,-4.82,-5.11%,-2.31%

# — PubChem BioAssay AID1745853 (National Center for Advancing Translational Sciences (NCATS), 2022)
